The values that follow come from publication PMC9774280.

By UniProt entry, the sequences of proteins in these tests, tags left out. Residues count along the entry.
UniProt Q9QUK6, residues 26-835: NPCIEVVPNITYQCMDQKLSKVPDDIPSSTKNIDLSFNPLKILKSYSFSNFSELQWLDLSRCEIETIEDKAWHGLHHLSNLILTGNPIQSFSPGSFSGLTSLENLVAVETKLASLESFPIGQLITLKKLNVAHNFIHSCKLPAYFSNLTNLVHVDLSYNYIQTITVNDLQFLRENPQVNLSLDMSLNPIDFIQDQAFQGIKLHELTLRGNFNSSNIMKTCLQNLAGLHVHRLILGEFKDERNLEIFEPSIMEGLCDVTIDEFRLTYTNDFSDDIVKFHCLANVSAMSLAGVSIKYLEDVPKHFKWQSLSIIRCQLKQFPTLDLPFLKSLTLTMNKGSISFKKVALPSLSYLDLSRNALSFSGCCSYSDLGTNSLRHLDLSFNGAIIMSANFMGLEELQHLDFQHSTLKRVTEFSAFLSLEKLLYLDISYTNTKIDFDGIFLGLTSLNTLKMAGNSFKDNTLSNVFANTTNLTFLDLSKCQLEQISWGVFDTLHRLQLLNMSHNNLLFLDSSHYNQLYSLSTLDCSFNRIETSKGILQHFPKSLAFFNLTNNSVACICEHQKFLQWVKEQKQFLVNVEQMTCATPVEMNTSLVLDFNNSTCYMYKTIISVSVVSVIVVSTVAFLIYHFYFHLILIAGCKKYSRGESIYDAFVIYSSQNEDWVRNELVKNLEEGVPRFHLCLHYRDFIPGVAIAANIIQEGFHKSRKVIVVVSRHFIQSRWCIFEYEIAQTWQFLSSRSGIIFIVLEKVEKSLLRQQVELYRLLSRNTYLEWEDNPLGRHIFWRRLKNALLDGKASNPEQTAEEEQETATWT

Assay [1] deals with T1, GST-NAMPT (10-116), N-terminus of NAMPT (UniProt P43490).
T1 sequence: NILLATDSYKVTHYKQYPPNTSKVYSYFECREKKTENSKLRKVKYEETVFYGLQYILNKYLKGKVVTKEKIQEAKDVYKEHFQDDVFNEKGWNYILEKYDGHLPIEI
Description: pull-down; 293T cells co-transfected with the GST fusion and the tagged partner; NP-40 lysate, glutathione-Sepharose, 4 °C, 4 h; IB with anti-Flag, anti-V5 or anti-Myc.

The target in assay [2] is TLR4, endogenous (mouse (endogenous in BMDMs and colon)) (UniProt Q9QUK6). Kind of assay: co-IP; competition: TAT-NAMPT peptides on BMDMs incubated with rNAMPT; loss of the anti-His co-precipitate of TLR4 or CYBB read out; peptide against the endogenous receptor; only the binder purified.
In assay [3] the target is T2, CYBB, endogenous (mouse (endogenous in BMDMs and colon)) (UniProt Q61093).
T2 sequence: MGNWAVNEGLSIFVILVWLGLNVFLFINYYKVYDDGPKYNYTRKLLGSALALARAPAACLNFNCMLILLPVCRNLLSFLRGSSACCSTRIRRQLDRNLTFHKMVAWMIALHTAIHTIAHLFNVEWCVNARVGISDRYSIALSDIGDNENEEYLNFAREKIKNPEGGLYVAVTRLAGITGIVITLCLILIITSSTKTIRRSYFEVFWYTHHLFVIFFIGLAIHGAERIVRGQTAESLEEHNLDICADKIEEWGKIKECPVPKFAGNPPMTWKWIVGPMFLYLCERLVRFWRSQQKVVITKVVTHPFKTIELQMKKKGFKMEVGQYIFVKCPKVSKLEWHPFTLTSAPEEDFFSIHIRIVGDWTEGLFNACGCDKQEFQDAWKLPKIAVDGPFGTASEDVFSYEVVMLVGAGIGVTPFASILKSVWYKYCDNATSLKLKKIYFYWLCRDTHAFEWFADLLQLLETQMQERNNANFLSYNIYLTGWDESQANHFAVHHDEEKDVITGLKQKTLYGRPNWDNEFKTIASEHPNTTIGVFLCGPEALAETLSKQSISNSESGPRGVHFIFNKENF
The assay is described as above.

In assay [4] the target is Nicotinamide phosphoribosyl transferase (NAMPT), endogenous, extracellular (e) NAMPT of macrophages (mouse (endogenous in BMDMs and colon)) (UniProt Q99KQ4). Kind of assay: co-IP; BMDMs primed with LPS (100 ng/mL) and stimulated with ATP (1 mM); NP-40 lysate; IP with anti-NAMPT, IB with anti-TLR4, anti-CYBB, anti-CYBA, anti-ASC or anti-NLRP3.
The target of assay [5] is recombinant NAMPT protein (UniProt P43490). Kind of assay: co-IP; BMDMs incubated with rNAMPT (1 μg/mL) for 2 h; IP with anti-His, IB with anti-TLR4, anti-CYBB, anti-CYBA, anti-ASC or anti-NLRP3; only the target purified.
Assay [6] deals with Nicotinamide phosphoribosyl transferase (NAMPT), endogenous, extracellular (e) NAMPT of macrophages (mouse (endogenous in BMDMs and colon)) (UniProt Q99KQ4). Description: co-IP; colon of DSS-treated Lenti-shNS-transduced mice (rVehicle, rCT or rCT-NAMPT given); IP with anti-His or anti-NAMPT, IB with anti-TLR4, anti-CYBB or anti-CYBA.
The target is the same in assay [7]. Description: condition: only in Lenti-shITG-transduced (ITGA6/ITGB1 knock-down) mice; co-IP; colon of DSS-treated Lenti-shITG-transduced (ITGA6 and ITGB1 knock-down) mice; IP with anti-His or anti-NAMPT, IB with anti-TLR4, anti-CYBB or anti-CYBA.

Results are given in words; binding and its absence hold for the method and conditions named. In cells and extracts the contact can be indirect. Some entries that bind do so weakly or less than the wild type. For part of these data: Tags and fused reporters may be left off the sequences shown.

B1: V5-CYBB (protein, UniProt P04839 1-570)
chain: MGNWAVNEGLSIFVILVWLGLNVFLFVWYYRVYDIPPKFFYTRKLLGSALALARAPAACLNFNCMLILLPVCRNLLSFLRGSSACCSTRVRRQLDRNLTFHKMVAWMIALHSAIHTIAHLFNVEWCVNARVNNSDPYSVALSELGDRQNESYLNFARKRIKNPEGGLYLAVTLLAGITGVVITLCLILIITSSTKTIRRSYFEVFWYTHHLFVIFFIGLAIHGAERIVRGQTAESLAVHNITVCEQKISEWGKIKECPIPQFAGNPPMTWKWIVGPMFLYLCERLVRFWRSQQKVVITKVVTHPFKTIELQMKKKGFKMEVGQYIFVKCPKVSKLEWHPFTLTSAPEEDFFSIHIRIVGDWTEGLFNACGCDKQEFQDAWKLPKIAVDGPFGTASEDVFSYEVVMLVGAGIGVTPFASILKSVWYKYCNNATNLKLKKIYFYWLCRDTHAFEWFADLLQLLESQMQERNNAGFLSYNIYLTGWDESQANHFAVHHDEEKDVITGLKQKTLYGRPNWDNEFKTIASQHPNTRIGVFLCGPEALAETLSKQSISNSESGPRGVHFIFNKENF
As for B1, the binding entry in assay [1] is “binds”.

B2: TAT–NAMPT (aa 52–65) peptide (peptide, UniProt P43490 52-65)
peptide: GRKKRRQRRRPQVKYEETVFYGLQYI
For the molecule B2, the binding result in assay [2] and in assay [3] was “binds” in each case.

B3: CYBA, endogenous (protein, UniProt Q61462 1-192)
chain: MGQIEWAMWANEQALASGLILITGGIVATAGRFTQWYFGAYSIAAGVLICLLEYPRGKRKKGSTMERCGQKYLTSVVKLFGPLTRNYYVRAALHFLLSVPAGFLLATILGTVCLAIASVIYLLAAIRGEQWTPIEPKPKERPQVGGTIKQPPTNPPPRPPAEVRKKPSEGEEEAASAGGPQVNPMPVTDEVV
With B3, the results for the binding result in assay [4] and in assay [5] were “no binding” and “no binding (tested: 1 μg/mL rNAMPT)”, respectively.

B4: CYBB, endogenous (protein, UniProt Q61093 1-570)
chain: MGNWAVNEGLSIFVILVWLGLNVFLFINYYKVYDDGPKYNYTRKLLGSALALARAPAACLNFNCMLILLPVCRNLLSFLRGSSACCSTRIRRQLDRNLTFHKMVAWMIALHTAIHTIAHLFNVEWCVNARVGISDRYSIALSDIGDNENEEYLNFAREKIKNPEGGLYVAVTRLAGITGIVITLCLILIITSSTKTIRRSYFEVFWYTHHLFVIFFIGLAIHGAERIVRGQTAESLEEHNLDICADKIEEWGKIKECPVPKFAGNPPMTWKWIVGPMFLYLCERLVRFWRSQQKVVITKVVTHPFKTIELQMKKKGFKMEVGQYIFVKCPKVSKLEWHPFTLTSAPEEDFFSIHIRIVGDWTEGLFNACGCDKQEFQDAWKLPKIAVDGPFGTASEDVFSYEVVMLVGAGIGVTPFASILKSVWYKYCDNATSLKLKKIYFYWLCRDTHAFEWFADLLQLLETQMQERNNANFLSYNIYLTGWDESQANHFAVHHDEEKDVITGLKQKTLYGRPNWDNEFKTIASEHPNTTIGVFLCGPEALAETLSKQSISNSESGPRGVHFIFNKENF
In the case of B4, the binding entry in assay [4] is on record as “binds”; in assay [5], “binds”; in assay [6], “binds”; in assay [7] it was “no binding”.
